# Experimental data reported in article PMC4336329 (PLoS ONE, 2015).
# Among all 310,000 compounds or so, about 2,200 (0.71%) showed an effect of 50% or more. The effect is printed as a negative number. Some of the results follow.
# Target: human ether-à-go-go-related gene (hERG) potassium channel (human, UniProt Q12809)
# Experiment: primary screen, population patch clamp on CHO cells stably expressing hERG
# Chain of human ether-à-go-go-related gene (hERG) potassium channel (Q12809 whole entry, looked up): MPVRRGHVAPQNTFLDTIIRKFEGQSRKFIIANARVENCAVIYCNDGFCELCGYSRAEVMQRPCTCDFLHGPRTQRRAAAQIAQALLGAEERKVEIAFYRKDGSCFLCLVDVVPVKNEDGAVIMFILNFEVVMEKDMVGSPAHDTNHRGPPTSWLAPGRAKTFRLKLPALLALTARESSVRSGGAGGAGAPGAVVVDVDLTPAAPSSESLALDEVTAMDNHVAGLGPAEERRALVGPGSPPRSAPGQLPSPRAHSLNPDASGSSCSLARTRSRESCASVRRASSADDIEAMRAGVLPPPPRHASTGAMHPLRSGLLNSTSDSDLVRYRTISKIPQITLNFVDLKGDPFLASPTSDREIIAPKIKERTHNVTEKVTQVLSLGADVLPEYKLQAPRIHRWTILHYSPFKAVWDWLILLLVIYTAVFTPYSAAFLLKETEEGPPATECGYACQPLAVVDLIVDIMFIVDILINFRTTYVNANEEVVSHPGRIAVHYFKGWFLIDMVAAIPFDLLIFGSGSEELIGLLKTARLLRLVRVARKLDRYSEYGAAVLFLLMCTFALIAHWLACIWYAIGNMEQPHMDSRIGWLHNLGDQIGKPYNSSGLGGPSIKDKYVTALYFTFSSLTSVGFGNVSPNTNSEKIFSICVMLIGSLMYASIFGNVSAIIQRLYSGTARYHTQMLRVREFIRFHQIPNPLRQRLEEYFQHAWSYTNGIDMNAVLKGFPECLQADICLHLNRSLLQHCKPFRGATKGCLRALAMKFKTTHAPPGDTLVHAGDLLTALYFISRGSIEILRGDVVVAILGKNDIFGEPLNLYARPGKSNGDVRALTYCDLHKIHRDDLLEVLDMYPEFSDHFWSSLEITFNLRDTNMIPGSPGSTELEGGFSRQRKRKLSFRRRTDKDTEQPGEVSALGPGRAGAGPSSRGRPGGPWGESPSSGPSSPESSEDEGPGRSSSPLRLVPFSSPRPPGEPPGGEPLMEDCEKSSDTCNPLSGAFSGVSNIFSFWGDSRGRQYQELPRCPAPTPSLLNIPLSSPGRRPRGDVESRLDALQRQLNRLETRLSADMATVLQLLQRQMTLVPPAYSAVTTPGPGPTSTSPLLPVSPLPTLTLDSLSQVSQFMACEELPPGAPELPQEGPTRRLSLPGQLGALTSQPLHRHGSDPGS
row,SMILES,"hERG current change (%, negative = inhibition) at 1uM"
1,O=C(O)CC1Sc2nnc(COc3ccc(Cl)cc3)n2N=C1c1ccccc1 (stereo not drawn),16.8%
2,CCCCn1nc(C(=O)Nc2ccccc2N2CCCC2)c2ccccc2c1=O,3.71%
3,O=C(c1cccc(Oc2ccccc2)c1)N1CCN(c2ccccn2)CC1,4.42%
4,CCCC1(CCC)C(=O)NC(=NCc2ccccc2)NC1=O,11.6%
5,CC1(C)CC(=O)N(CC(=O)O)c2ccccc2S1,13.8%
6,O=C(NC(=S)Nc1ccc(N2CCCCC2)cc1)c1ccco1,-16.6%
7,COC(=O)c1[nH]c2ccc(F)cc2c1NC(=O)CCN1CC(C)OC(C)C1 (stereo not drawn),14.6%
8,CCOc1ccc(C(=O)CCC(=O)Nc2ccncc2)cc1,-0.519%
9,CCC(C)NC(=O)c1cc(C)no1 (stereo not drawn),12.3%
10,COCCNC(=O)C(=O)NNS(=O)(=O)c1ccc2ccccc2c1,4.3%
11,COc1ccccc1S(=O)(=O)Cc1ccc(C(=O)N2CCN(c3cccc(Cl)c3)CC2)o1,2.08%
12,O=C(O)c1ccc(-n2c(-c3cc(-c4ccco4)[nH]n3)n[nH]c2=S)cc1,9.91%
13,COc1ccc(-n2nnnc2-c2ccc(S(C)(=O)=O)cc2Cl)cc1,14.3%
14,CC(=O)c1cccc(NC(=O)C(CC(C)C)NC(=O)C2CCCCC2)c1 (stereo not drawn),3.65%
15,O=C(NCCc1ccc(Cl)cc1)C1COc2ccccc2O1 (stereo not drawn),-4.51%
16,CCOC(=O)C1CCN(Cc2ccccc2C)CC1,13.4%
17,COc1cc([N+](=O)[O-])ccc1NC(=O)Oc1ccc(NC(C)=O)cc1,7.14%
18,COCCn1c(SCC(=O)Nc2ccccc2OC)nc2c([nH]c3ccccc32)c1=O,10.6%
19,CCOC(=O)CCCNC(=O)CCNC(=O)c1ccc(OCCC(C)C)cc1,8.59%
20,Brc1ccc(-c2csc(/N=C/N3CCCC3)n2)cc1,-5.23%
21,Cl.OC(COCCC12CC3CC(CC(C3)C1)C2)CN1CCCCC1 (stereo not drawn),1.22%
22,C/C(CCc1ccc2c(c1)OCO2)=N\NC(=O)c1ccccc1Br,4.54%

row,SMILES,"hERG current change (%, negative = inhibition) at 1uM"
1,O=C(COC(=O)c1cccc(Br)c1)NCCc1ccc(F)cc1,7.07%
2,O=C(CNC(=O)c1ccccc1Br)N/N=C/c1cccnc1,17.6%
3,Nc1nc(Oc2ccc(F)cc2)c(Br)c(=O)[nH]1,12%
4,CC(=O)[C@@H]1[C@@H](C(=O)c2ccccc2)[C@]2(C(=O)Nc3ccccc32)[C@H]2C=Cc3cc(F)ccc3N12,4.44%
5,Cc1cc(NC(=O)c2cc(-c3ccccc3)on2)n(-c2ccccc2)n1,7.88%
6,COc1cnc(-c2ccccn2)nc1Oc1cccc(Cl)c1,5.66%
7,CCOC(=O)c1c(C)[nH]c(C)c1C(=O)COC(=O)/C=C/c1cccc(Cl)c1,11%
8,O=C(Nc1cc(C(F)(F)F)ccc1N1CCOCC1)c1ccc[n+]([O-])c1,10.6%
9,O=C(CN1C(=O)COc2ccccc21)N1CCN(C2CCCCC2)CC1,13.1%
10,O=S(=O)(c1ccc2c(c1)OCCO2)N1CCCN(S(=O)(=O)c2c(F)cccc2F)CC1,6.58%
11,Cc1ccc2[nH]c(C)c(CCNC(=O)NC3CCCCC3)c2c1,12.7%
12,CCN(C(=O)COC(=O)CCc1c[nH]c2ccccc12)c1c(N)n(Cc2ccccc2)c(=O)[nH]c1=O,4.03%
13,CCSc1nnc(NC(NC(=O)c2ccco2)(C(F)(F)F)C(F)(F)F)s1,3.49%
14,COc1ccc(Cc2n[nH]c(=S)n2-c2ccc3c(c2)OCCO3)cc1,17.1%
15,O=c1[nH]c(-[n+]2ccccc2)c(/C=N/N=C(\[O-])c2ccccc2)s1,2.36%
16,CCSc1nnc2c(n1)[nH]c1c(C)cccc12,8.04%
17,CC(C)CNC(=O)c1cc([N+](=O)[O-])ccc1N1CCOCC1,18.3%
18,O=C(OCC[NH+]1CCOCC1)c1cccnc1.[Cl-],8.84%
19,O=C(COC(=O)C1=COCCO1)NCc1ccc(F)cc1,5.48%
20,Cc1nn(C)c(C)c1NC(=O)Nc1ccc(Cl)c(Cl)c1,5.18%
21,COc1ccc(-n2nnnc2SCC(=O)Nc2ccccc2N2CCOCC2)cc1OC,4.54%
22,CC(C)(C)c1ccc(Cn2c(=O)cnc3ccccc32)cc1,4.94%

row,SMILES,"hERG current change (%, negative = inhibition) at 1uM"
1,Cc1cccc(NC(=S)N(CCCN2CCOCC2)Cc2ccco2)c1,-5.79%
2,COC(=O)[C@H](Cc1c[nH]c2ccccc12)NC(=O)NCc1ccc(OC)c(OC)c1,13.8%
3,O=[N+]([O-])c1ccc2c(c1)nc1n2CCSC1,9.89%
4,Cc1ccc(S(=O)(=O)N2CCOCC2)cc1C(=O)NC1CCCCC1,8.88%
5,Nc1n[nH]c(N)c1N=Nc1ccc(Cl)cc1Cl,0.961%
6,N#Cc1ccc(-c2ccc(F)cc2)nc1Oc1ccccc1,11.3%
7,Nc1ncc2[nH]cnc2n1.O=[N+]([O-])O,7.43%
8,CN(C)c1ccc(/C=N/NC(=O)C(=O)/C=C2\NC3(CCCC3)Cc3ccccc32)cc1,11.8%
9,Cc1cc(OCC(=O)N(Cc2ccco2)c2c(N)n(Cc3ccccc3)c(=O)[nH]c2=O)ccc1Cl,6.22%
10,CCN(C(=O)c1sc(N)c(C#N)c1C)C1CCCCC1,7.77%
11,COc1ccc(N(CC(=O)Nc2ccccc2C(=O)N2CCCC2)S(C)(=O)=O)cc1,16.2%
12,O=C(O)C(F)(F)F.O=C1C(Cc2ccccc2)Nc2ncnc(N3CCCCC3)c2N1Cc1ccc(Cl)cc1 (stereo not drawn),9.31%
13,O=C(c1ccc(COc2ccccc2Br)cc1)N1CCCCC1,10.3%
14,CC(=O)Nc1ccc(NC(=O)c2cccc(S(=O)(=O)N(C)C3CCCCC3)c2)cc1,14%
15,COc1ccc([N+](=O)[O-])cc1N(CC(O)CN(C)C)S(=O)(=O)c1ccc(C)cc1 (stereo not drawn),-9.26%
16,Cc1ccc(NC(=S)N(Cc2ccccc2)Cc2cccs2)c(C)c1,7.07%
17,O=c1c2ccccc2nc(/C=C/c2ccco2)n1-c1ccccc1O,-9.72%
18,CC(=O)Nc1ccc(S(=O)(=O)NCC2CCC(C(=O)N3CC(C)CC(C)C3)CC2)cc1 (stereo not drawn),11.7%
19,COc1cc(N)c(Br)cc1C(=O)O,9.63%
20,Cc1cc(C)n(CC(=O)c2ccc(Cl)cc2)n1,1.92%
21,NC(=O)NOCc1c(F)cccc1Cl,19.3%
22,CN1CCN(C(=O)/C(=C\c2cccs2)NC(=O)c2ccccc2)CC1,-78.3%

row,SMILES,"hERG current change (%, negative = inhibition) at 1uM"
1,Cn1c(CNC(=O)CNC(=O)Cc2ccc(F)cc2)cc(=O)n(C)c1=O,17.7%
2,CCCCOc1ccc(C(=O)NCC(=O)NCCOc2ccc(C)cc2)cc1,4.59%
3,Cc1nc2ccccc2c(=O)n1NC(=O)c1ccc(Cl)c([N+](=O)[O-])c1,-2.19%
4,O=C(COc1coc(CN2CCc3ccccc3C2)cc1=O)Nc1cccc([N+](=O)[O-])c1,8.33%
5,CC[C@H]1OC(=O)[C@H](C)[C@@H](O[C@H]2C[C@@](C)(OC)[C@@H](O)[C@H](C)O2)[C@H](C)[C@@H](O[C@@H]2O[C@H](C)C[C@H](N(C)C)[C@H]2O)[C@](C)(O)C[C@@H](C)CN(C)[C@H](C)[C@@H](O)[C@]1(C)O,6.28%
6,COc1ccc(C(=O)Nc2ccccc2C(=O)NC(Cc2ccc(O)cc2)C(=O)NNC(=O)c2ccncc2)cc1 (stereo not drawn),9.21%
7,CCc1nc(SCc2ccc(Br)cc2)n[nH]1,12.7%
8,Cc1ccsc1C(=O)Nc1ccc(C(=O)O)cc1,0.214%
9,CCCn1c(SCC(N)=O)nnc1C(C)C,12.8%
10,COc1ccc(C2C(C(=O)NCC3CCCO3)CCC(=O)N2c2ccc3c(c2)OCO3)cc1 (stereo not drawn),7.84%
11,Nc1ccc(Cc2nc3c(ccc4ccccc43)[nH]2)cc1,0.194%
12,CCOC(=O)CNC(=O)N1CCc2ccc(NC(=O)c3ccccc3Cl)cc2C1,9.15%
13,CC(=O)OC(C(=O)NC1CCCCC1)c1ccc(Cl)cc1 (stereo not drawn),13.9%
14,O=C(CCc1nc2ccccc2c(=O)[nH]1)Nc1cc(C(F)(F)F)ccc1N1CCOCC1,3.13%
15,CCOc1ccc(C(=O)NCC(=O)OCC(=O)Nc2cccc(S(=O)(=O)N3CCCC3)c2)cc1,8.1%
16,O=C(COC(=O)/C=C/c1ccc([N+](=O)[O-])cc1)NC(c1ccccc1)c1ccccc1,0.898%
17,Cc1c(-c2ccccc2)[nH]n2c(=O)c3c(nc12)CCCC3,4.19%
18,O=C(COc1ccccc1)Nc1ccc(CN2CCCCC2)cc1,3.49%
19,CCN(c1ccccc1)c1nc2nonc2nc1NCCO,13.4%
20,Cc1cc(NC(=O)c2cc(C(C)C)on2)no1,0.819%
21,CCc1noc(C)c1C(=O)Nc1cc(S(=O)(=O)N(CC)CC)ccc1N1CCCC1,-7.11%
